Measurements: PubChem BioAssay AID624296 (National Center for Advancing Translational Sciences (NCATS), 2012)
Out of some 350,000 compounds screened, about 9,900 (2.8%) were called active. The inconclusive results got no clear call from the source; some entries with a clear call stand among them for comparison. Calls come from the whole dose curve; as a rule, active = well fitted activation curve with a large enough effect; inconclusive = small, poorly fitted or top-dose-only effect; inactive = no such curve, though single readings can be large or run the other way. No potency is given beside an inconclusive call; the fits are too rough.

Test: A quantitative high throughput screen for small molecules that induce DNA re-replication in MCF 10a normal breast cells. For activity, positive = re-replication: % of control where 0% means no effect. Note: nearly all actives have a fitted effect of over 50% in size.
Details: MCF 10A DNA re-replication, Hoechst nuclear intensity, 48 h; activity, positive = re-replication: at 46.1 µM (top of the series)
Potency is the fitted concentration of half-maximal effect; tags give direction and shape of the fitted curve.

Compound | Potency | activity, positive = re-replication
C=C(C)COc1ccc2c(C)c(CC(=O)OC)c(=O)oc2c1C | inconclusive [activator, single point] | –
COCc1[nH]nc2c1C(c1ccnc3ccccc13)C(C#N)=C(N)O2 (stereo unspecified) | inconclusive [activator, partial curve, poor fit] | –
COc1cc2c(cc1OC)C(C)N(C(=O)c1cc3c(s1)-c1ccccc1OC3)CC2 (stereo unspecified) | inconclusive [activator, single point] | –
Cc1cc(=O)oc2cc(Oc3ccc([N+](=O)[O-])cc3[N+](=O)[O-])ccc12 | inconclusive [activator, single point] | –
Cc1cc(O)c(C2=Nc3ccccc3SC(c3ccc(Cl)cc3)C2)c(=O)o1 (stereo unspecified) | active: 5.17 µM | –
Cc1cccc(-c2c3c(=O)n(C)c(=O)n(C)c3cn2C2CCCCC2)c1 | inconclusive [activator, single point] | –
Cn1cccc1/C=N/NC(=O)Cc1ccccc1 | – | inactive: -0.376%
CCOc1ccc2ccccc2c1C(=O)N[C@@H]1C(=O)N2[C@@H]1SC(C)(C)[C@@H]2C(=O)O | inactive | –
Nc1nc(Br)c2c(F)cccc2c1-c1ccc(F)cc1 | inconclusive [activator, single point] | –
Cn1cc(C(C[N+](=O)[O-])c2ccccc2)c2ccccc21 (stereo unspecified) | active: 13 µM | –
CN1CCN(C(=S)NC(=O)c2ccccc2Cl)CC1 | – | inactive: -2.14%
CC(C)Oc1ccc(C(=O)CCN2CCOCC2)cc1 | inconclusive [activator, single point] | –
CCO[C@@H]1OC(C(=O)N2CCN(Cc3ccccc3)CC2)=C[C@H](c2coc3ccccc3c2=O)[C@H]1CCCO | inconclusive [activator, single point] | –
Fc1ccc(-c2nc3ccccc3c3nc4ccccc4n23)cc1 | inconclusive [activator, partial curve, poor fit] | –
Cn1c(N)c(C(=O)CSc2nc3ccccc3c(=O)n2CCCN2CCOCC2)c(=O)n(C)c1=O | inconclusive [activator, single point] | –
CC(=O)c1ccc(S(=O)(=O)N2CCN(C(=O)c3ccc(-n4cncn4)c([N+](=O)[O-])c3)CC2)cc1 | – | inactive: 2.73%
CN(C)C/C=C(/c1ccc(Br)cc1)c1cccnc1 | inconclusive [activator, partial curve, poor fit] | –
CCOC(=O)c1cc(-c2ccccc2)sc1NC(=O)C(C)OC(=O)c1cccnc1Cl (stereo unspecified) | inconclusive [activator, full curve, poor fit] | –

Compound | Potency | activity, positive = re-replication
COc1ccc(CCNC(=O)C(=O)NCc2ccc(C)cc2)cc1OC | – | inactive: 1.64%
O=C(Nc1ccc(N2CCN(C(=O)c3ccccc3)CC2)cc1)c1ccc2c(c1)OCCO2 | inconclusive [activator, partial curve, poor fit] | –
O=C(Nc1cccc(S(=O)(=O)Nc2ccccc2Cl)c1)c1ccc(Cl)nc1 | – | inactive: -51.5%
COc1ccccc1Nc1nc(N)nc(CSC(=S)N2CCOCC2)n1 | inconclusive [activator, full curve, poor fit] | –
Cc1nc(NC(C)c2ccccc2)sc1C(=O)Nc1ccccc1 (stereo unspecified) | – | inactive: 20.3%
O=C(Cn1ccccc1=S)c1ccc(Cl)c(Cl)c1 | – | inactive: 16%
CCN(CC)C(=O)c1ccc(COc2ccc(Cl)c(C)c2)o1 | – | inactive: 1.19%
CCN1CCN(CCOc2cccc(Cl)c2Cl)CC1 | inconclusive [activator, full curve, poor fit] | –
COC(=O)Nc1ccc(S(=O)(=O)N2CCCc3ccccc32)cc1 | active: 8.2 µM | –
CCOC(=O)C(Cc1ccc(O)cc1)NC(=O)CNC(=O)C(CC(C)C)NC(=O)OC(C)(C)C (stereo unspecified) | inconclusive [activator, partial curve, poor fit] | –
O=C1/C(=C\c2cccc(O)c2O)SC(=S)N1Cc1ccccc1 | inconclusive [activator, single point] | –
COc1ccc(S(=O)(=O)N/N=c2\oc3c(OC)cccc3cc2S(=O)(=O)c2ccc(C)cc2)cc1OC | inconclusive [activator, partial curve, poor fit] | –
O=C(Nc1nnc(COc2ccc(Cl)cc2)s1)c1cccs1 | inconclusive [activator, partial curve, poor fit] | –
CC1CCN(c2nnc(-c3ccccc3)c3ccccc23)CC1 | active: 11.2 µM | –
Cc1cccc(Oc2ccc(Cl)cc2N)c1 | inconclusive [activator, single point] | –
O=C(c1ccccc1NS(=O)(=O)c1ccc(F)cc1)N1CCc2ccccc21 | inconclusive [activator, single point] | –
COc1ccc(Nc2cc(Nc3cc(OC)c(OC)c(OC)c3)ncn2)cc1 | inconclusive [activator, single point] | –
COc1ccc(OC)c(S(=O)(=O)NCc2ccccn2)c1 | – | inactive: 9%
